Laboratory results as given in the supplement of paper PMC3334620.
Over roughly 33,000 sequences, “E-score (-0.5 to 0.5)” has its median near -0.053; the highest 2% begin near 0.37. Some of the results follow.

Biological target: Hap1 (UniProt P0CE41)
Test: PBM E-score (8-mer binding enrichment) (E-score (-0.5 to 0.5)); higher = stronger / more preferred TF binding; most listed sequences are background and not binding sites
Settings: protein concentration: 200 nM; construct: GST-DNA-binding domain
Summary of the method: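 Yeast transcription factors, full-length or as DNA-binding domains, were expressed with a GST tag using PURExpress in vitro transcription/translation. At about 100-200 nM they were applied to universal all-10-mer Agilent arrays, double-stranded by primer extension on fresh or once-stripped slides. Fluorescent anti-GST detected bound protein, and masliner normalised the scans. E-scores for ungapped eight-base words, pooled with reverse complements, came from the Universal PBM Analysis Suite.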

UniProt P0CE41, sequence (P0CE41 whole entry): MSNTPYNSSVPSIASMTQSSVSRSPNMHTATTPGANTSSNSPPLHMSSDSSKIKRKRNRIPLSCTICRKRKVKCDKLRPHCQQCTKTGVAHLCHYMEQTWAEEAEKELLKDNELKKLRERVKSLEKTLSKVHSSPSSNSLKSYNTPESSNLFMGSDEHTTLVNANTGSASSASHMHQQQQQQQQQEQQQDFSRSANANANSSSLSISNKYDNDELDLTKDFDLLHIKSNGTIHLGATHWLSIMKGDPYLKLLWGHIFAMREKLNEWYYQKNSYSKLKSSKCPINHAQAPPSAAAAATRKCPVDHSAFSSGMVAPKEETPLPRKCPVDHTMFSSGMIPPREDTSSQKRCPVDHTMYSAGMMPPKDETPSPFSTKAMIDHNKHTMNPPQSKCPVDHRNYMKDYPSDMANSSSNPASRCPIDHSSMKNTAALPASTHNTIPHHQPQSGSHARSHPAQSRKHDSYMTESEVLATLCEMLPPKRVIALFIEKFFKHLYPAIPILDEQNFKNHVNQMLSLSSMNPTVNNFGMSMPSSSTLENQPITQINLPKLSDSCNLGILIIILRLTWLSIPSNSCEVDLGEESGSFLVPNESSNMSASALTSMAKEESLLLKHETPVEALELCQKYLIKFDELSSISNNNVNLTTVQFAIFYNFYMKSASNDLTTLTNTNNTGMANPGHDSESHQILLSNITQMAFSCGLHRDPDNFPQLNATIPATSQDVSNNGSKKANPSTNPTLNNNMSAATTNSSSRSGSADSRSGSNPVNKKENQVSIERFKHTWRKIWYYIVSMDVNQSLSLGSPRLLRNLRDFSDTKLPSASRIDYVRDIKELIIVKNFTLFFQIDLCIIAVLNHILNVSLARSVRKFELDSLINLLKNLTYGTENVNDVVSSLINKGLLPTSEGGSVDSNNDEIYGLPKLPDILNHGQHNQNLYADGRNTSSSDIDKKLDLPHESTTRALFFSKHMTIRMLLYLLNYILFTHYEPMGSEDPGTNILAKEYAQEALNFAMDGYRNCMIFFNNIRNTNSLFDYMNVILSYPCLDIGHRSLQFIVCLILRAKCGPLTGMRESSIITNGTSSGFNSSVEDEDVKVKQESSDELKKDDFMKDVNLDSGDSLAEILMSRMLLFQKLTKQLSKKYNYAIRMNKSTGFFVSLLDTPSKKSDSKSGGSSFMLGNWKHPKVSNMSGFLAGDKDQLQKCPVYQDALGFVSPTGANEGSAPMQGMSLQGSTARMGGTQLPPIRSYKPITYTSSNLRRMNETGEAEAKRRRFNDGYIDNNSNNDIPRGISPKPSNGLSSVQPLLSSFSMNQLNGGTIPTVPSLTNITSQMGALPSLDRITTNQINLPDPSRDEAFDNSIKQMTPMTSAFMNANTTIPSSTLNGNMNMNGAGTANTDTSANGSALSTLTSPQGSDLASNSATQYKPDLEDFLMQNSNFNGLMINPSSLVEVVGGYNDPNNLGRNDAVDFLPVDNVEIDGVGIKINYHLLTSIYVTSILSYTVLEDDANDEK

Sequence	PBM E-score
GTGGAGCA	-0.125
AATCTTCA	-0.0413
CGACCCAC	0.112
AGGAAGCC	0.00309
GAAGCTTC	0.00491
GAATTCAA	0.103
CCGAGGTA	0.28
GGCATCCA	-0.14
GGTTAGCA	-0.0201
AAAAATGC	0.107
CAAAGTCA	-0.198
AGATGCAC	-0.0371
CTATTCGA	-0.292
CTTGCCGC	0.0486
ATCCACCC	0.0404
ACCTGGCG	-0.00541
TCAGTGAA	-0.136
CCATGATC	-0.0916
GGCCTAAC	0.164
CAACTGCC	0.0469
GCTAGGGA	-0.228
CCAAGACC	-0.0784
ATCGTTCA	-0.138
AGATATAA	-0.015
CTTTTTCA	-0.313

Sequence	PBM E-score
CTAAAGAC	-0.156
ACTGATTG	-0.282
AGGGAACG	-0.0997
AACCTATT	0.0652
CCCTAAGA	-0.193
ATGAGCAC	-0.0616
ACGTGAAG	-0.295
CCACGTAC	-0.165
CAGCGAGA	-0.0469
AGCTATAA	-0.162
CGGGGAAG	0.284
GATCCAGC	0.0551
ATTCTGGC	-0.0263
AAAGAAAC	0.0402
AAAAATCC	0.258
CCGGGGTA	0.301
CCAGGGGG	-0.26
AATGTGGG	-0.0696
ACTGGCCC	0.0158
GCGAACAA	0.0858
GCGTCTCA	-0.283
ACCGCCCA	0.0676
AAGAGACA	-0.0984
AACAGGGC	-0.174
CTCAAATC	-0.131

Sequence	PBM E-score
AACCAAAG	-0.29
CCACGGCC	0.166
CAAACCTA	-0.194
AGCATTCC	0.0452
CTTTTTTA	-0.0942
CAACATAG	-0.0614
ACCTACTA	-0.141
TTACCGAA	0.233
TGATATCA	-0.122
ATTATGCG	0.207
ATAGGATC	-0.04
ACTGTGAG	-0.148
GCTTACCA	-0.0368
CTATCACA	-0.0542
GAGTAAAC	-0.00531
ATTACGTA	0.052
GTTAGAAC	0.048
AGCTCGGG	0.363
AATCAGTA	-0.115
GCGATGTA	-0.0542
AGTACCAG	0.0047
ACCTCTGC	-0.143
GGACGTGA	0.0064
AGTCTGTG	-0.348
AATGCTTC	-0.0292

Sequence	PBM E-score
TAACCGGA	0.417
CACTACAC	-0.178
CGTTTGGA	0.00761
CTTTGGCC	0.044
CGGGCATA	0.386
AAGCTGCG	-0.0912
AATGAGAC	-0.191
TCAACCAA	-0.18
ACCTTGAT	-0.046
TGATGTAA	-0.0956
GTGGTTCA	-0.0794
ATACAGTA	-0.0276
CCGGGCAG	0.26
CAGCCGCG	0.0683
ACCGTGAC	-0.0308
ACTTGACC	-0.0881
CGTGGTAC	-0.0995
TCCATACA	-0.0369
AAAAATGG	0.00791
TATTTCCA	0.334
AGAAGACA	-0.227
CGGAGCCC	0.0818
CTATAGCA	-0.0247
AGGAGAGC	-0.238
AAGCGTTG	-0.091

Sequence	PBM E-score
CATTCAAG	-0.0757
CTACTTAA	-0.296
AGTCCTAG	-0.241
CCTCCGTA	0.246
GAGTATGC	0.0835
GGCTCACA	-0.127
GACACGTA	-0.194
CAGCGTAG	-0.168
CATGTCGG	0.156
AAGGACCG	0.22
AGCGTCTC	-0.00623
CTCCGGTC	0.431
GAATGGCC	0.13
CAGTCGTC	-0.16
CATCGAGC	0.0339
CCTCCTGA	-0.18
ATGAGATA	-0.0505
CCCGTCTC	0.0719
TCCGAGGA	0.384
CCGGTCCG	0.42
GGACTTAC	0.332
GATTGGCA	-0.134
AGCTAGAC	-0.112
ACCAGCAA	0.0919
CTACCCTC	-0.149

Sequence	PBM E-score
ACGAGCCT	-0.242
GCCCTCGA	-0.308
CGTAGGCC	-0.165
AGCGTATC	-0.128
GCACCCAA	0.103
CTAAGCAG	-0.123
ATGGGTTG	-0.133
TCAATCCA	-0.108
GCGATCAA	-0.0352
GTCATGTA	-0.238
ATGCATCG	0.0913
AAAGAGAC	-0.0982
AGTGTGAA	-0.185
AGCGTCCG	0.188
GAATGTTA	0.0712
AATTTAGG	-0.0289
ACGGCGAC	0.141
ACTCCGGC	0.389
GATGCTAA	0.127
AAGCATAA	-0.0296
GACAACTA	-0.138
ATCGTAGC	-0.064
AGAGGCAT	-0.0975
AGACATAC	-0.184
CCAGCAAC	-0.0591

Sequence	PBM E-score
CGGATTTA	0.489
CAAGCATG	-0.171
ACCTTAAT	-0.0464
CAATTCAA	-0.227
AATCGGGC	0.155
CATTCGCG	0.199
CGACGGGC	0.26
CTAACGGC	0.184
ACAATCCA	-0.204
AACTTAGC	-0.148
AGATAAAG	0.0627
GGATTGCC	0.138
ATTTAAAT	-0.052
ATGACTCG	0.0331
ACACGAGC	-0.302
CCCTTTGC	-0.0869
ATTTCGGC	0.326
AGTGTTTA	0.0706
CAGCTGCC	-0.0391
AGCCAAGA	-0.26
GTCAGTGA	-0.221
TCCGATCA	0.221
ACATATAT	0.0991
ACGACGGC	0.0534
CACTACGG	0.135

Sequence	PBM E-score
AGTGACGG	0.169
ACTTTGCC	0.0612
AGAGAAAA	-0.04
ATTGGACG	-0.0395
GTATATAA	-0.0803
ACTATCGG	0.349
CAATGTCA	-0.163
CTTCCGTA	0.262
ACGTAATC	-0.16
CCGAGGCG	0.292
TCACGGCA	-0.0536
ACTCTGTG	-0.115
CCACATCA	-0.064
AACCCCGG	0.456
ATGGATTC	-0.0542
ACCCCTGA	-0.0894
AAGGTCAT	-0.106
CGGTGCCC	0.119
AATTGAGT	0.0215
AAAAAAGT	-0.11
CTGTAACA	-0.409
GGATGACA	0.11
ATCCAAGG	0.00753
ACAGTCGG	0.21
CTTAGTTA	-0.0967

Sequence	PBM E-score
TAACACGA	-0.00421
AGTCCTAA	-0.207
TGGACTAA	-0.117
ACACACGT	-0.263
AGCAAAAA	-0.0538
CTGGGACC	-0.161
CCGCGATC	0.185
CATTCCAC	0.0599
CTGCTCAA	-0.292
AACCATAG	-0.106
ACTGTGAC	-0.15
GGCAAGCA	-0.124
AACTCCAG	-0.0226
GGCTTAGA	-0.181
AGTTGGCA	-0.124
ACTTCACT	-0.0435
ATTTAAAG	0.218
AATAAGGA	-0.119
GCAATGAA	-0.0319
GTGATAGA	-0.212
GCGGAAGC	0.0587
GCACGTCC	0.046
ATCCTCGC	0.107
CGCGCGCA	0.238
TGTTCTAA	-0.11

Sequence	PBM E-score
AACGGGAC	0.0881
CACCCCGA	0.229
CGTACGGA	0.227
ACTATACC	0.0871
GTTGACCA	-0.0947
AAGTTACT	-0.0147
CCTAGAGG	-0.292
ATAAGCAG	-0.0967
ACCCGGGC	0.368
CATGCGTC	-0.0877
ATATCTCG	0.0854
AGCCGAGC	0.324
GAGCGAAC	-0.0203
GAGCGTCA	-0.0372
CGGTATGA	0.187
TCAATACA	-0.207
AAGAGTCA	-0.235
AATGAAAG	-0.179
AGCGAGTG	-0.0216
GTGTGCTA	-0.0704
ATAACACC	0.292
AGTCGACG	0.0145
ATTAACTC	0.159
GCCGTGAA	0.0472
TGGCGCAA	-0.139

Sequence	PBM E-score
AGAGCACC	-0.105
GGTGTCTA	-0.145
AGGGTAGC	-0.162
AGATTAAG	-0.0246
GGGTGAAA	0.103
CTACTCGA	-0.0581
TCACCGAA	0.235
AATTAGCA	0.0728
ACGTGATA	-0.278
AAAAAAGA	-0.122
AGACAGCA	-0.0022
CATACTCG	0.138
ACCGAAAG	0.222
AAGTGTTA	0.0418
TACTACAA	-0.0389
AGCGGACA	0.326
ACATAAAC	-0.11
AATAAACC	0.142
TCGCCAGA	-0.147
ATTAACGC	0.137
AATATAAC	0.149
AAATGGTT	-0.106
CGCCCGAC	0.366
CAGTCCAA	-0.299
ACACGAGA	-0.19

Sequence	PBM E-score
ATGGGCCA	-0.0182
CTAGTACC	-0.0321
GTAGGATA	-0.126
ACGAGAAG	-0.227
AATCCACG	0.0107
ATGAAGTC	0.00068
TAAGCATA	-0.129
ATGATGCG	-0.0722
CCCGAGTC	0.278
CCGCGCCG	0.308
CAACGTGA	-0.156
AATCCTTC	-0.0508
CACACCAC	-0.133
TACGTTCA	-0.193
GTTTGTTA	-0.0176
AAACTGCG	0.0326
ATGCGCGG	0.232
ATTGATCG	0.0513
ATGGCAGA	0.089
TCACAGGA	-0.221
CCATCTTC	-0.102
TACATATA	-0.0132
AGACTAGA	-0.181
TGTTGTAA	-0.00737
GGTCCGAA	0.434

Sequence	PBM E-score
ACACCAAC	-0.18
GCGGAACC	0.245
ACGCTACA	-0.264
ATAACTTG	-0.2
TCCGTCAA	0.237
ATTTACAA	-0.218
AATTTCAG	-0.255
AATAACCG	0.315
CCTTGCCC	0.0105
AGCCAAGG	-0.147
AAAACTTA	-0.0742
CTAGTCGC	-0.209
CAGGAACA	-0.251
CTAGACAA	-0.107
AGGGGGGC	-0.0922
GACGTGAA	-0.155
AACTAGCC	-0.181
GAAGCGGC	0.016
ACAGCAAG	-0.14
ACGGCCCC	-0.118
AACCCCTC	-0.14
CCGTAGAC	0.22
ACCTTCCT	-0.317
CAATAACG	0.164
CCAAGTGG	-0.158

Sequence	PBM E-score
GTATTGCA	-0.0995
TATATTCA	0.0244
TCTGTGAA	-0.101
CCCGATAA	0.417
CAGTTATA	0.109
TAGTACCA	-0.0738
CGCTCGGA	0.404
ATCCAAAC	-0.125
CGGCGCGC	0.311
AACCAGCC	0.0595
AGATTCAC	-0.0849
CATCAGCG	-0.0312
CAAAAAAA	0.0437
TATATGGA	-0.174
TACGCTAA	-0.0737
ACGTGTTC	-0.0465
AGTTCCAC	-0.051
CGTCCGTA	0.309
ACCTAGAT	-0.146
